Data reported in PubChem BioAssay AID624296 (National Center for Advancing Translational Sciences (NCATS), 2012).
Out of some 350,000 compounds screened, about 9,900 (2.8%) were called active. The shares of active, inactive and inconclusive entries below differ from those in the screen. Calls follow the shape of the dose curve; as a rule, active = well fitted activation curve with a large enough effect; inconclusive = small, poorly fitted or top-dose-only effect; inactive = no such curve, though single readings can be large or run the other way. Potencies of inconclusive entries are left out as doubtful fits.

Test: A quantitative high throughput screen for small molecules that induce DNA re-replication in MCF 10a normal breast cells. Also: nearly all actives have a fitted effect of over 50% in size.
Conditions: MCF 10A DNA re-replication, Hoechst nuclear intensity, 48 h; series mostly up to 46.1 µM
Potency is read from the fitted curve at half-maximal effect; tags tell the direction and shape of the fitted curve.

SMILES | Potency
CC(OC(=O)/C=C/c1ccccc1)C(=O)N1CCc2ccccc21 (centres undefined) | inactive
Cc1oc(-c2ccccc2)cc1C(=O)Nc1cccc(C(=O)O)c1 | inconclusive [activator, full curve, poor fit]
Cc1cccc2cc(/C=C/C(=O)c3ccco3)c(Cl)nc12 | inconclusive [activator, single point]
CCCCCC1C(=O)C[C@@H]2CCN3C(=O)CCC[C@H]1[C@H]23 (some centres undefined) | inconclusive [activator, partial curve, poor fit]
CCN(CC)C(=O)Oc1ccc2c(=O)c(-c3ccc(OC)cc3)c(C)oc2c1 | inconclusive [activator, partial curve, poor fit]
COc1ccccc1S(=O)(=O)Cc1ccc(C(=O)N2CCCC2)o1 | inactive
COc1ccc(NC(=O)CCNS(=O)(=O)c2ccc(Cl)c([N+](=O)[O-])c2)cc1S(N)(=O)=O | inactive
Cc1cccn2c(=O)c3cc(C#N)c(=O)n(CCCN4CCOCC4)c3nc12 | active: 18.4 µM
COC(=O)c1ccc(C)c(NC(=O)CCSc2ccc(Cl)cc2)c1 | inconclusive [activator, partial curve, poor fit]
CC(C)(C)NC(=O)C(c1ccncc1)N(Cc1ccco1)C(=O)c1ccc(-c2ccccc2)[nH]1 (centres undefined) | active: 20.6 µM
COc1ccc(OC)c(Nc2ncnc3ccc(Br)cc23)c1 | inconclusive [activator, single point]
Cc1cc(NC(=O)c2ccccc2-c2ccccc2)ccc1Br | inconclusive [activator, single point]
C=CCn1c(SCC(=O)N(CCOC)c2c(N)n(CCCC)c(=O)[nH]c2=O)nnc1-c1ccc(Cl)cc1 | inactive
O=C(NC1CCCCC1)c1cc(F)cc2c1OCOC2 | inactive
O=C(NNC(=S)NC1CCCCC1)c1sc2ccccc2c1Cl | inconclusive [activator, single point]
O=C(COc1ccc(S(=O)(=O)NC2CCCCC2)cc1Cl)NCC1CCCO1 (centres undefined) | inconclusive [activator, single point]
CC(Oc1cccc(Cl)c1)C(=O)Nc1cc(S(=O)(=O)N2CCOCC2)ccc1N1CCCC1 (centres undefined) | inactive
Cc1c(C(=O)Nc2cccc([N+](=O)[O-])c2)csc1-c1ccccc1 | inconclusive [activator, partial curve, poor fit]
OCCNCc1ccc(OCc2ccc(Cl)cc2Cl)cc1 | inconclusive [activator, single point]
